The text below walks through data of PubChem BioAssay AID463173 (ICCB-Longwood Screening Facility, Harvard Medical School, 2010).

Structures are written as SMILES. In all, about 52,000 compounds went through this assay and about 1,700 (3.3%) were called active. No stated cut-off is given here; in the data, active means survival mostly below about 52% (no sharp cut-off); inactive means mostly above about 56%. This is one part of the list.

This assay concerns Wild type. Description: growth inhibition of S. aureus wild type versus tarO mutant, primary screen, teichoic acid synthesis inhibitors, RN4220, OD600 (AID 463173). As to conditions: S. aureus RN4220 wild type/DeltatarO growth, OD600, 18 h, hits give low values, screened at 18.75 µg/mL (by protocol).
As to `CCOC(=O)c1c(C)oc2nc(C)nc(NCCc3ccc(S(N)(=O)=O)cc3)c12`, the survival was inactive: 73%.
The result for `O=C(NCCc1ccccc1)c1cnc2sc(N3CCOCC3)nn2c1=O` reads inactive: 143%; that for `CCOC(=O)c1[nH]cnc1C(=O)N1CCOCC1`, inactive: 121%.
As for `CCCOc1ccc(CNC(=O)C2CCN(c3nn4c(=O)cc(C)nc4s3)CC2)cc1`, the survival is inactive: 124%.
Then `COc1ccc(CCC(=O)NCc2ccc3c(c2)CCN3C(=O)c2cccc(C)c2)cc1`, with inactive: 67%.
In the case of `Cc1cc(NC(=O)CN(c2cccc(C)c2C)S(=O)(=O)c2ccccc2)ccc1Br`, the survival is inactive: 91%.
In the case of `O=C(Nc1ccc(F)cc1F)C1CCCN1S(=O)(=O)c1cccc2nsnc12` (stereo unspecified), the survival was inactive: 77%.
Regarding `COc1cc(CNCCSc2nnnn2C)ccc1OCc1c(F)cccc1Cl`, the survival is inactive: 73%.
Then `CCOC(=O)c1[nH]c(C)c(C(=O)NCc2ccc(F)cc2)c1C`, with inactive: 90%; and `Cc1cccc(-c2nnc(SCCC(=O)O)o2)c1`, with inactive: 75%.
As to `COc1ccc(N2CCN(c3oc(/C=C/c4cccc(OC)c4)nc3C#N)CC2)cc1`, the survival is inactive: 83%.
For the compound `CCc1ccc(CNC(=O)C2CCN(c3nnc(-n4c(C)ccc4C)s3)CC2)cc1`, the survival is inactive: 70%.
On to `CCOc1ccc(CCNC(=O)c2cnc3c(-c4ccccc4)c(C)nn3c2C)cc1OCC`, for which the survival was active: -3%.
On to `Cc1cccc(NC(=O)CN2C(=O)CCc3ccccc32)c1C`, for which the survival is inactive: 115%.
In the case of `COc1ccccc1CNC(=O)C(C)n1c(=O)cc(C(F)(F)F)c2c(C)nn(C)c21` (stereo unspecified), the survival was inactive: 78%.
Take `CC(C)c1ccc(OCC(=O)Nc2cc(-c3nc4ncccc4o3)ccc2Cl)cc1`: the survival is inactive: 128%.
The result for `O=[N+]([O-])c1ccc(C(c2sc3nc(-c4ccco4)nn3c2O)N2CCC3(CC2)OCCO3)cc1` (stereo unspecified) reads inactive: 68%; that for `COc1cc(C2CC(=O)Nc3cc4c(cc32)OCCO4)cc(OC)c1O` (stereo unspecified), inactive: 84%.
Take `CCCCN(CCCC)c1nc(-c2ccccc2)nc2ccccc12`: the survival was active: -3%.
The result for `CCCC1=C(C(=O)OCC)C(c2cccnc2)n2ncnc2N1` (stereo unspecified) reads inactive: 109%.
In the case of `CCCCC(=O)Nc1ccc(OCc2cc(=O)n3ccc(C)cc3n2)cc1`, the survival is inactive: 72%.
Regarding `CC1(c2ccccc2)CC(C)(C)N(C(=O)c2ccccc2Cl)c2ccccc21` (stereo unspecified), the survival is active: -2%.
The result for `COc1ccccc1C(=O)Nc1c(C(=O)Nc2ccc(C)cc2)oc2ccccc12` reads inactive: 75%; that for `Cc1oc(-c2cccc(Cl)c2)nc1CSCC(=O)O`, inactive: 84%; that for `CCC(=O)Nc1ccc(C)cc1-c1nc2ccccc2n(Cc2ccccc2)c1=O`, inactive: 86%.
Consider `CCN(C(=O)c1cc2c(Cl)nc3ccc(C)cc3c2s1)c1cc(OC)ccc1OC`, for which the survival is inactive: 83%.
For the compound `O=C(CN1CCOCC1)n1c2ccccc2c2ccccc21`, the survival was inactive: 95%.
As to `Cn1c(C(=O)OC(C(=O)NCc2ccccc2)c2ccccc2)cc2sccc21` (stereo unspecified), the survival was inactive: 105%.
With `COc1ccc(NC(=O)C2CCCN2S(=O)(=O)c2ccc3c(c2)CCCC(=O)N3)cc1Cl` (stereo unspecified), the survival is inactive: 63%.
Take `O=C(CCS(=O)(=O)c1nc(-c2cccs2)cc(C(F)(F)F)n1)Nc1cccc(O)c1`: the survival was inactive: 77%.
As to `COc1ccccc1CNC(=O)c1cc(-c2ccccc2)n[nH]1`, the survival was inactive: 99%.
Take `Cc1ccc(N2C(=O)C(CC(=O)Nc3ccccc3)N(CCC3=CCCCC3)C2=O)cc1` (stereo unspecified): the survival is inactive: 87%.
In the case of `O=C(NCCCN1CCN(c2cccc(Cl)c2)CC1)c1nnc(Cc2ccc(F)cc2Cl)o1`, the survival is inactive: 45%.
As for `Cc1ccc2nc(NC(=O)CSc3ncc(C(=O)Nc4ccccc4)c(=O)n3C)sc2c1`, the survival was inactive: 66%.
Consider `CCc1ccc(S(=O)(=O)c2cnc(SCC(=O)Nc3ccc(OC)cc3OC)[nH]c2=O)cc1`, for which the survival was inactive: 67%.
Consider `CCOc1ccccc1NC(=O)CN1C(=O)C(=O)c2ccccc21`, for which the survival was inactive: 115%.
The result for `CCCc1cc(=O)oc2cc(C)c3c(-c4ccccc4)c(C)oc3c12` reads active: 0%.
For the compound `CC(C)NC(=O)c1sc2ncccc2c1-n1cccc1`, the survival was inactive: 124%.
Then `CCOc1ccccc1N(CC)C(=O)c1cc2ccc3cccnc3c2[nH]1`, with inactive: 74%; and `Cn1c2ccc(F)cc2c2nnc(SCCN3CCCCC3)nc21`, with inactive: 140%; and `COCCn1c(COc2ccc(Cl)cc2)nnc1SCC(=O)OC`, with inactive: 100%.
For the compound `CCOc1ccc(CCNC(=O)c2sc3nc4n(c(=O)c3c2C)CCCC4)cc1`, the survival is inactive: 75%.
Then `O=C(COc1ccccc1)Nc1ccccc1N1CCN(c2ccccc2)CC1`, with inactive: 95%.
With `CCc1ccc(N=C2NC(=O)CS2)cc1`, the survival is inactive: 116%.
As to `O=C(O)Cn1nc(N2CCN(c3ccccc3)CC2)ccc1=O`, the survival was inactive: 77%.
As to `Cc1sc2c(c1C)c(=O)n(Cc1ccccc1)c(=O)n2CC(=O)Nc1cccc(Cl)c1`, the survival was inactive: 91%.
Regarding `Cc1ccccc1C(=O)NCc1ccc2c(c1)CCN2C(=O)c1ccc(F)cc1`, the survival was inactive: 63%.
The result for `CC1CCC(NC(=O)CCc2cn(Cc3ccc(F)cc3)c3ccccc23)CC1` (stereo unspecified) reads inactive: 90%; that for `COc1ccc(NC(=O)c2nc(S(=O)(=O)Cc3ccc(C)cc3)ncc2Cl)cc1`, inactive: 81%.
As for `CCOC(=O)Cn1cnc2c(cnn2-c2ccc(C)c(C)c2)c1=O`, the survival is inactive: 72%.
For the compound `O=C(O)C1=CC(c2ccc(Br)cc2)n2ncnc2N1` (stereo unspecified), the survival was inactive: 81%.
The result for `Cc1nn2c(=O)cc(COC(=O)COc3ccccc3C)nc2s1` reads inactive: 70%.
For `CCOc1ccc(C(=O)c2cn(CC(=O)Nc3ccc(C)c(C)c3)c3ccc(OCC)cc3c2=O)cc1`, the survival was inactive: 78%.
Then `CCS(=O)(=O)c1nc(S(=O)(=O)c2ccc(C)cc2)c(NCc2ccccc2Cl)s1`, with inactive: 92%; and `CCOC(=O)CSc1ncnc2c1c(-c1ccccc1)cn2-c1ccc(OC)cc1`, with inactive: 75%; and `COc1ccc(N2CC(NC(=O)c3ccc(S(=O)(=O)N4CCOCC4)cc3)CC2=O)cc1` (stereo unspecified), with inactive: 82%.
Take `COc1cc2c(cc1OC)C(COc1ccc(C(C)C)cc1)N(C(=O)COc1ccccc1)CC2` (stereo unspecified): the survival is inactive: 75%.
As for `COc1ccc(OCC(=O)N2CCN(C(=O)c3ccc(OC)cc3)CC2)cc1`, the survival was inactive: 85%.
With `O=C(/C=C/c1ccco1)Nc1ccc(-c2cc3ccccc3oc2=O)cc1`, the survival is inactive: 106%.
As to `COc1ccc(NC(=O)CC2C(=O)N(c3ccc(C)cc3)C(=O)N2C2CCCC2)cc1` (stereo unspecified), the survival is inactive: 121%.
Regarding `CCOc1ccc(Nc2nc(Nc3ccc(OCC)cc3)nc(N3CCOCC3)n2)cc1`, the survival was inactive: 82%.
Take `COc1ccc(CCNC(=O)CCCn2c(=O)c3cccn3c3ccc(F)cc32)cc1OC`: the survival was inactive: 63%.
Regarding `Cc1cc(C)nc(/N=C(/N)N2CCCCC2)n1`, the survival is inactive: 103%.
The result for `CC(NC(=O)c1cc2ccccn2n1)c1ccccc1` (stereo unspecified) reads inactive: 83%; that for `COC(=O)CN1C(=O)C(C)(C)c2cc(S(=O)(=O)Nc3ccc(C(C)C)cc3)ccc21`, inactive: 55%.
As to `Cc1ccc(C)c(CN2C(=O)C(O)(c3c[nH]c4ccccc34)c3ccccc32)c1` (stereo unspecified), the survival is inactive: 116%.
Then `Cc1cn2c(=O)cc(COC(=O)C(C)Oc3ccccc3)nc2s1` (stereo unspecified), with inactive: 55%; and `COC(=O)c1ccc(Cl)cc1NC(=O)N1CCC(CN2CCC(C)CC2)CC1`, with inactive: 84%; and `CCc1cccc(NC(=O)c2coc(=O)c3ccccc23)c1`, with inactive: 65%.
For `COc1cccc(NC(=O)c2oc3ccccc3c2NC(=O)Cc2cccc(C)c2)c1`, the survival was inactive: 63%.
On to `CCc1ccc(-n2nc(CO)c(C(=O)NCCCCc3ccccc3)n2)cc1`, for which the survival was inactive: 85%.
With `O=C(NCc1ccc(Cl)cc1)c1cc(-c2ccc(F)cc2)on1`, the survival is inactive: 70%.
For the compound `Cc1ccccc1OCC(=O)N(Cc1ccc(C(C)C)cc1)C1CCS(=O)(=O)C1` (stereo unspecified), the survival is inactive: 72%.
In the case of `Cc1ccc(S(=O)(=O)c2nc(-c3ccccc3)oc2SCC(=O)NC2CCCCC2)cc1`, the survival was inactive: 161%.
The result for `O=C(Nc1ccc(F)c(Cl)c1)C1CCCN1S(=O)(=O)c1ccc(F)cc1` (stereo unspecified) reads inactive: 94%.
`COc1cccc(C2Nc3ccccc3-c3nnc(SCc4ccccc4)nc3O2)c1OC` (stereo unspecified): the survival was inactive: 127%.
As to `COc1ccc(NC(=O)C(CC(C)C)NS(=O)(=O)c2ccc3c(c2)oc(=O)n3C)cc1Cl` (stereo unspecified), the survival was inactive: 136%.
The result for `CCOc1ccc(NC(=O)Cn2c(=O)n(Cc3nc(-c4ccccc4)no3)c(=O)c3ccccc32)cc1` reads inactive: 82%; that for `CCOC(=O)C1=C(CS(=O)(=O)c2ccc(C)c(C)c2)NC(=O)NC1c1ccccc1OCC` (stereo unspecified), inactive: 88%.
Turning to `COc1ccc(N(CC(=O)N2CCN(c3cccc(OC)c3)CC2)S(=O)(=O)c2c(C)noc2C)cc1`, the survival is inactive: 75%.
Turning to `O=C(Cn1c(=O)ccc2cc(S(=O)(=O)N3CCCC3)ccc21)NCc1ccc(F)cc1`, the survival is inactive: 94%.
As to `COc1ccc(CCNC(=O)CSCc2nc(-c3ccc(OC)c(OC)c3)oc2C)cc1OC`, the survival is inactive: 77%.
In the case of `COc1cc(OC)c(NC(=O)c2ccc3c(Cl)c4c(nc3c2)CCCC4)cc1Cl`, the survival is inactive: 86%.
`Cc1nn(-c2ccccc2)c2sc(C(=O)N3CCOCC3)cc12`: the survival was inactive: 120%.
Regarding `CC1CCCN(C(=O)Cn2c(=O)n(CC3CCC(C(=O)NC(C)C)CC3)c(=O)c3sccc32)C1` (stereo unspecified), the survival is inactive: 128%.
The result for `Cn1c(-n2cccc2)c(-c2c(-c3ccc(F)cc3)[nH]c3c2c(=O)[nH]c(=O)n3C)c(=O)[nH]c1=O` reads inactive: 83%; that for `Nc1nc(SC#CC(F)(F)F)ns1`, inactive: 38%; that for `O=C1CN(c2ccccc2)C(=S)N1C(=O)c1ccccc1`, inactive: 107%.
As to `COCCNc1ccc(-c2nc(-c3cccc(C)c3)no2)cc1[N+](=O)[O-]`, the survival is inactive: 86%.
In the case of `CN1C(=O)c2ccccc2Sc2ccc(NC(=O)COc3ccc(Cl)cc3)cc21`, the survival was inactive: 65%.
For the compound `COc1ccc(-n2ncc3c2ncn2nc(-c4ccc(Cl)cc4Cl)nc32)cc1`, the survival is inactive: 92%.
